We go through 86 sequences from the supplement of paper PMC3334620.

Over roughly 33,000 sequences, “E-score (-0.5 to 0.5)” has its median near -0.021; the highest 2% begin near 0.32. The list shows a part of the results.

The assay deals with T1, Zap1 (UniProt P47043).
T1 sequence: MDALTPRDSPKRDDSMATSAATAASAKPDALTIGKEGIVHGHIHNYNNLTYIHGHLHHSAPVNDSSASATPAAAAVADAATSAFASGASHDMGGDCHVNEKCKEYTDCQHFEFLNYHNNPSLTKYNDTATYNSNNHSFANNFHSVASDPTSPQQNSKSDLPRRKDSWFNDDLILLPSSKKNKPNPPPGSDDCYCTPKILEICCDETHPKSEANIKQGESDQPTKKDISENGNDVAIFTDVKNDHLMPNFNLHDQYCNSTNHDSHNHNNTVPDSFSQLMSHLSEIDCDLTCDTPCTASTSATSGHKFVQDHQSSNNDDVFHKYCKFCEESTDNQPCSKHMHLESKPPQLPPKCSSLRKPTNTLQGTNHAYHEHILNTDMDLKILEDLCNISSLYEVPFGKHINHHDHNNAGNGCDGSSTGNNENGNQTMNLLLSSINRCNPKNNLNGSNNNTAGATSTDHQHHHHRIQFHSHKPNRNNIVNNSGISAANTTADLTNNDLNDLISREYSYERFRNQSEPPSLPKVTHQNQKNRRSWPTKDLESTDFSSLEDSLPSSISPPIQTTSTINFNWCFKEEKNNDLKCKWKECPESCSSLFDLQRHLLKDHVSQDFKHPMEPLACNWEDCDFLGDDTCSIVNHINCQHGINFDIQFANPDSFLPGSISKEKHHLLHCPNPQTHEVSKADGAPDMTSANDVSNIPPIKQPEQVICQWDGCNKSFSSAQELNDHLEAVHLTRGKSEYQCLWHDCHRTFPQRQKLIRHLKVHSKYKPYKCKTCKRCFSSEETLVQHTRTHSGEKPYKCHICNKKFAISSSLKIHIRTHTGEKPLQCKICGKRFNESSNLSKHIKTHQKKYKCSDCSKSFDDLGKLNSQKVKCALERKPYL
The assay is described as follows: PBM E-score (8-mer binding enrichment) (E-score (-0.5 to 0.5)); higher = stronger / more preferred TF binding; most listed sequences are background and not binding sites. Particulars: protein concentration: 200 nM; construct: GST-full length. An outline of the steps: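 Using PURExpress in vitro transcription/translation, GST-tagged yeast transcription factors were made in full-length or DNA-binding-domain form. These were applied at about 100-200 nM to double-stranded universal all-10-mer Agilent arrays, and bound protein was detected with fluorescent anti-GST. Scans were normalised with masliner before the Universal PBM Analysis Suite assigned E-scores to ungapped eight-base words pooled with their reverse complements.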
Regarding CGCGTTAC, the “PBM E-score” value was found to be 0.141.
The value for GACCTAGA was 0.0626.
Take GTTAAAAC: the “PBM E-score” value came out at 0.22.
As for TTCTAAAA, the “PBM E-score” value was 0.187.
The value for CATTTCCC was 0.12; that for TACTCTGA was 0.0488; that for ATAATGCC was 0.0451.
Then CGTCCTAA, with 0.00473.
Then GCGTGCAC, with -0.208.
With GATACATC, the “PBM E-score” value is -0.109.
Then ATGTCTAC, with -0.134; and AAAAAACT, with 0.00919; and ATGTTGGA, with 0.0998.
The value for GCTTTCCA was -0.111.
Then GGTTTTCA, with 0.26; and CTCCAAAG, with 0.0186; and AAGATGCC, with -0.281.
ACTTTAGC: the “PBM E-score” value is -0.16.
The value for AGGGGAAC was -0.0872.
Then CCTACTCG, with -0.124; and CATAAACC, with 0.135.
Then AGGTATGG, with 0.155.
Consider AGGCCGAG, for which the “PBM E-score” value was found to be 0.0111.
The value for TGGCTGAA was -0.139; that for ATGTCGGG was 0.0104.
The value for CAGATCGA was -7e-05.
As to AACACTAA, the “PBM E-score” value is 0.179.
On to GGAAATGA, for which the “PBM E-score” value amounted to 0.115.
Then GATAAGGA, with -0.0277; and AACAACTG, with 0.189; and AATCACGT, with -0.15.
As for CGCTAGCA, the “PBM E-score” value is -0.0784.
The value for GCACGAAC was 0.044; that for GGAATCAC was 0.0891; that for CCATCTAA was -0.0281.
Consider AGAGCACG, for which the “PBM E-score” value was -0.217.
Then GGAGGTTA, with 0.36; and AGAAGGGA, with -0.422.
The value for ACGGCCGC was 0.0225; that for GGAAGGGA was -0.268.
Turning to AAACAACT, the “PBM E-score” value worked out at 0.114.
The value for CACCTCCC was -0.0903; that for CGGTCAGC was 0.0641; that for AAATTAGC was 0.0653.
The value for GCCGAGCA was -0.24; that for GTATATCA was 0.113.
Then AAAGAGGA, with -0.229; and GACGTCTA, with -0.203; and ACAACCGG, with 0.194.
CATTTGCC: the “PBM E-score” value was -0.132.
For the sequence ATACTGTA, the “PBM E-score” value worked out at 0.173.
For the sequence TTCTGAAA, the “PBM E-score” value amounted to 0.126.
The value for AGGCGCAC was -0.0796.
The value for CGAGTACC was 0.149; that for CACTTCAA was 0.0419; that for AATGATAC was 0.208.
CGCCCTTA: the “PBM E-score” value was determined as 0.0874.
Take CACTGATC: the “PBM E-score” value came to 0.0193.
Then CCTGAAAC, with 0.238; and CTTTACCC, with 0.129.
On to CGGCATGA, for which the “PBM E-score” value was 0.062.
Consider CATATTCA, for which the “PBM E-score” value turned out to be 0.0632.
Then AGGGTGAA, with 0.0968; and GGAGACCA, with -0.0236.
Then CCCTGCTC, with 0.00487; and CTGCGTGC, with -0.227.
With CTCTAGGC, the “PBM E-score” value is -0.12.
Then CCGGACGG, with -0.0372; and ACTCCCCG, with -0.0274; and AATTGCCG, with -0.248.
Then GGCGGACA, with -0.0625; and GCCAGTTA, with -0.11.
With AGTCGTAT, the “PBM E-score” value is -0.19.
Then CTTAAATA, with 0.0782; and CGACCCTA, with 0.328; and GGTGACCA, with 0.283.
Then CCGATGCG, with -0.217; and GGCTTGGA, with -0.31; and CGGTACGA, with 0.057.
The value for ACCCATTA was 0.224; that for GCGTATCC was -0.12.
Take CGAACACG: the “PBM E-score” value is -0.0862.
In the case of CCCACGCG, the “PBM E-score” value is 0.00595.
Then GTGCTTGA, with -0.0867; and CAAGTGTG, with -0.0659; and AAGGGGCT, with -0.0319.
